In all, about 150,000 compounds went through this assay and about 540 (0.36%) showed an effect of 50% or more. This is one part of the list.
These compounds were tested on Plasmodium falciparum (assay: Primary screen in NF54 nanoGlo assay, in single point, at 2uM, 72h; a lower Z score goes with more inhibition). Conditions: timepoint 72 hour.
Assay type: functional, Erythrocyte

| Compound | % Inhibition | Z score |
| --- | --- | --- |
| C[C@H](NC(=O)c1c[nH]nn1)c1ccc2c(c1)OCCO2 | -14% | 1.17 |
| CCOC1CC2(CCN(C(=O)CCCc3ccc4c(c3)CC(=O)N4)C2)C1 (stereo not given) | -12% | 2.28 |
| CCNC(=O)N1CC(S(=O)(=O)C2CCCCC2)C1 | -18% | 2.27 |
| CCN(CC)CCNC(=O)c1cnn(-c2nccc(-c3ccc4c(c3)OCO4)n2)c1-c1ccco1 | -15% | 2.96 |
| CCCn1cnc2c1c(=O)n(CCC(C)C)c(=O)n2-c1ccc(C(C)C)cc1 | -5% | 0.61 |
| O=C1CN(C(=O)[C@H]2CCn3c(cnc3C(F)(F)F)C2)CCN1CC1CCCC1 | -4% | 0.55 |
| CCc1ccc(CNc2ccc(F)c(N3CCCS3(=O)=O)c2)o1 | -1% | 0.12 |
| C=C(C)CNC(=O)NCc1ncoc1C | 5% | -0.78 |
| CC(C)=CCC[C@@]1(C)CCC(=O)N(Cc2cccc(C(=O)N(C)C)c2)C1 | -1% | 0.14 |
| Cc1nn(CC(=O)OC(C)C)c(C)c1CN1CCN(c2ccc(CN(C)C)cn2)CC1 | -11% | 1.06 |
| N#Cc1nccnc1Nc1ccc(OCCO)cc1 | -13% | 2.53 |
| C#CCO[C@@H](C)C(=O)N1CCN(c2nnc(C)c(C)c2C(N)=O)CC1 | 3% | -0.43 |
| CCCS(=O)(=O)NC1CCN(C(=O)C2=NN(c3ccc(C)cc3)C(=O)CN2)CC1 | 13% | -1.98 |
| Cn1c(O)c(CCNc2cc([C@H]3CCOC3)ncn2)cnc1=O | -11% | 1.93 |
| CO[C@@H](C(=O)N1CCCN2CCC[C@H]2C1)c1ccccc1 | -5% | 0.88 |
| Cc1cc(NCc2ccsc2)nc(N)n1 | 16% | -2.24 |
| CC1CN(CC(=O)Nc2ccccc2Br)C1c1ccccc1 (stereo not given) | -1% | 0.11 |
| C=CCn1cc(CNC[C@H](C)n2nc(C)cc2C)c(C)n1 | -1% | 0.17 |
| CC(C)(C)n1nc(CC(N)=O)nc1-c1ccccc1-c1nnn[nH]1 | 1% | -0.29 |
| CCc1nc2cc(N[C@@H](C)C(=O)N3CCOCC3)ccc2o1 | 2% | -0.23 |
| c1nsnc1N1CCC(COc2cc3c(nn2)CCC3)CC1 | 3% | -0.59 |
| CCNC(=O)[C@@H]1CCCN1Cc1cc(=O)c2cccc(F)c2[nH]1 | -5% | 0.73 |
| CCOCCCNC(N)=NCc1ccc(COC(C)C)cc1 | -1% | 0.21 |
| O=S(=O)(CC1CCOCC1)N1CCN(c2ccccc2Cl)CC1 | -1% | 0.08 |
| c1ccc(C2CCN(c3ccnc4ccsc34)CC2)cc1 | -10% | 1.6 |
| CO[C@@H]1COC[C@H]1n1cc(CNC(=O)CCCC(F)(F)F)nn1 | -4% | 0.56 |
| O=C([C@H]1CC(=O)N(c2ccc(F)cc2)C1)N1CCNCC1 | -7% | 0.9 |
| Cc1ccc(Nc2nn(CN(C)CC(=O)N[C@H]3CCS(=O)(=O)C3)c(=S)s2)cc1Cl | -18% | 3.13 |

| Compound | % Inhibition | Z score |
| --- | --- | --- |
| CCC(NC(=O)c1ccn(C)c1C)[C@H]1C[C@H](O)C1 (stereo not given in full) | -1% | 0.09 |
| Cc1ncccc1OC[C@H]1CCCN1C(=O)c1cnn(C)c1C | -11% | 1.45 |
| O=C(Nc1cc(C(F)(F)F)c[nH]c1=O)C1CCOCC1 | -2% | 0.36 |
| CC(C)(C(=O)N1C[C@@H]2CC[C@H]1CN(Cc1ccccn1)C2)c1ccccc1 | -1% | 0.15 |
| CCN(C(=O)CN1CCCS1(=O)=O)[C@@H](C)Cc1ccsc1 | -16% | 2.67 |
| Cc1cc(C)nc(NC2CCCCC2)n1 | -11% | 1.11 |
| Cc1ccc(C(=O)c2cnc3cc4c(cc3c2N2CCC(C(N)=O)CC2)OCO4)cc1C | -12% | 1.58 |
| CCCc1ncncc1C(=O)N1C[C@@H](C)[C@@](C)(O)C1 | -25% | 2.21 |
| COc1ccc(CCc2nc3nccc(-c4ccc5c(c4)OCO5)n3n2)cc1OC | -9% | 1.19 |
| CCCn1ncc(C(=O)N2C[C@H]3CC[C@@H](C2)N(Cc2ccccn2)C3)c1C | -1% | 0.19 |
| COc1ccc(S(=O)(=O)N[C@H]2[C@H](O)[C@H](O)C[C@@H]2c2ccc(C(F)(F)F)cc2)cc1 | 11% | -1.32 |
| Cc1nn(C)c(C)c1CNC(C)CC(O)c1ccc(F)cc1 (stereo not given) | -3% | 0.38 |
| O=C(Nc1ccc(CN2CCCC2=O)cc1)c1ccc(C2CCC2)cc1 | -2% | 0.25 |
| COc1ccc(-n2ncc3c2CC(C)(C)C[C@@H]3NC(=O)c2cc3ncccn3n2)cc1 | 6% | -0.52 |
| Cc1cc(NC(=O)C2(c3ccccc3)CC(=O)C2)cc2[nH]ncc12 | -17% | 3.17 |
| c1ccc(C2(c3ccccc3)NCCO2)cc1 | 3% | -0.35 |
| COC(=O)c1nc([C@@H]2CCCN2Cc2ccncc2)sc1C | 8% | -0.79 |
| Cc1ccc(S(=O)(=O)c2cnc3ccc(Cl)cc3c2Nc2ccc3c(c2)OCCO3)cc1 | 2% | -0.29 |
| CC[C@](C)(NCC#N)c1nc(C)cs1 | -9% | 0.89 |
| CN(Cc1ccccc1Br)c1nccn(C)c1=O | -4% | 0.59 |
| COc1cccc(Cc2csc(NCc3ccccc3)n2)c1 | -1% | 0.28 |
| CCCc1noc(CN2CCc3sccc3C2)n1 | 0% | 0.05 |
| O=C(NCC1CCN(Cc2ccoc2)CC1)c1cscn1 | 1% | -0.18 |
| O=C(NCc1ccc(=O)[nH]n1)c1cc(Br)cnc1C1CC1 | -4% | 0.57 |
| O=c1n(CCN2CCN(Cc3ccccc3)CC2)nc2ccccn12 | -14% | 1.52 |
| CN(CCN1CCCC1)S(=O)(=O)Cc1ccccc1F | -11% | 1.46 |
| COc1ccc(S(=O)(=O)c2csc3c2NC(=O)C[C@@H]3c2ccc(C)c(C)c2)cc1 | -18% | 1.82 |

From ChEMBL document CHEMBL4888484, “Replenishing the malaria drug discovery pipeline: Screening and hit evaluation of the MMV Hit Generation Library 1 (HGL1) against asexual blood stage Plasmodium falciparum ,using a nano luciferase reporter read-out” (2022)
